This is one part of the list.
Each sequence was assayed against T1, OsWOX13 (Oryza sativa, UniProt Q5QMM3 1-267) (assay: protein-binding microarray (RPBM); PBS, 2% BSA, 51.3 ng/ul salmon testes DNA, 50 uM zinc acetate, 200 nM TF, 25 C, 1 h; high values mean tight binding). Conditions: protein: recombinant; tags: N-terminal polyhistidine and DsRed monomer fusion (pET32a); label: CyDye5-dUTP incorporated in the synthesized complementary strand; 3' TTTTT single-stranded linker to array surface; dsDNA, one strand shown.
T1 sequence: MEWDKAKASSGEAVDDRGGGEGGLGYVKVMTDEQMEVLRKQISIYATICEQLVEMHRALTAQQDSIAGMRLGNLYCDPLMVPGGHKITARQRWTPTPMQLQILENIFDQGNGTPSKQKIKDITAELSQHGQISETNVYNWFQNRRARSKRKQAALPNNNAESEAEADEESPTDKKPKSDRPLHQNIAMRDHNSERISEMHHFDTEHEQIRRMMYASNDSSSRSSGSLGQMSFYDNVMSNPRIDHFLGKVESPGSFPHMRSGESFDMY
Summary of the method: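 Per-feature fluorescence intensity (arbitrary units), read on an Axon 4000B scanner, is the binding signal. Transcription factors carrying an N-terminal polyhistidine tag and DsRed fusion were expressed in E. coli BL21-CodonPlus and purified on Ni–NTA. A custom Agilent array, made double-stranded by primer extension with Cy5-dUTP and blocked with 2% BSA, was incubated with 200 nM protein in PBS, 2% BSA, salmon testes DNA and 50 µM zinc acetate at 25 °C for 1 h and then washed.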

Row | Sequence | binding signal
1 | TGAAATTTCTCTTCATTTTGTTTTAAATCCTGGACAGACACGGAGTCACCTAGTGCAG | 3370 fluorescence intensity (a.u.)
2 | TTACTTGTAGATTGGTGCTATAATATCTGGTATTCAACCTCGGAGTCACCTAGTGCAG | 5570 fluorescence intensity (a.u.)
3 | ATAAATATTACTATAATTTATTACAAATCAAATTTGAATTCGGAGTCACCTAGTGCAG | 11100 fluorescence intensity (a.u.)
4 | TATACATGCAATCATTTCAAATCTCAATGGTTATATGACCCGGAGTCACCTAGTGCAG | 4290 fluorescence intensity (a.u.)
5 | AGAAAATTAATGTTCAACAAACTCGTCACAAATTAAGTTTCGGAGTCACCTAGTGCAG | 13600 fluorescence intensity (a.u.)
6 | ACTCTGATTAAAGTCAAACTGTTTTAAGTTTAACTAAGTTCGGAGTCACCTAGTGCAG | 23800 fluorescence intensity (a.u.)
7 | TCCGTGATTAGCCATAAGTGCTACAGTAACCCACATGTGCCGGAGTCACCTAGTGCAG | 35800 fluorescence intensity (a.u.)
8 | ATATATATATATATATGTATATGTATATGTATATGTATATCGGAGTCACCTAGTGCAG | 3220 fluorescence intensity (a.u.)
9 | ATAAATTACTTTTCGTTTGCAAATATGCTGTTTGAATAAGCGGAGTCACCTAGTGCAG | 13300 fluorescence intensity (a.u.)
10 | TATCCCAATTGATTTGTAAAGGTGTTCATTTACAACACACCGGAGTCACCTAGTGCAG | 24600 fluorescence intensity (a.u.)
11 | CGATCCAATTACGTCTCTCTCATTTCCAAATGAGGCACGCCGGAGTCACCTAGTGCAG | 8010 fluorescence intensity (a.u.)
12 | AATAAATTGATTGTAACCCTCTTACTTATCTGAATAGAGACGGAGTCACCTAGTGCAG | 22200 fluorescence intensity (a.u.)
13 | GGGCCTTAATTACGACGTTTACCCTTGGCCATCGAAGACACGGAGTCACCTAGTGCAG | 6410 fluorescence intensity (a.u.)
14 | CACAGTAATTTTCCTAAAAGAATGATAGGTGTCACGCACTCGGAGTCACCTAGTGCAG | 8360 fluorescence intensity (a.u.)
15 | CAGCTTGTTAATTTGTTATTGCTGCCGAACAGAAACCTATCGGAGTCACCTAGTGCAG | 4730 fluorescence intensity (a.u.)
16 | TAGAGATTAAAACTCAATTAATTATACGTTAATGGCTTTCCGGAGTCACCTAGTGCAG | 12300 fluorescence intensity (a.u.)
17 | AATTAATTAAATTAATAAGGGAAGCACGTCGGCGTAATCCCGGAGTCACCTAGTGCAG | 40900 fluorescence intensity (a.u.)
18 | CCTAGATTGCGCCGCACCACGCCACCACGTACGCACGCGTCGGAGTCACCTAGTGCAG | 9000 fluorescence intensity (a.u.)
19 | AAAATTATTTAATCGAAAGGAGCCCGCTAGTTGTTTCACACGGAGTCACCTAGTGCAG | 3320 fluorescence intensity (a.u.)
20 | TTAATGTGTATGTCATGTAATTGAACATAAACACTACTGTCGGAGTCACCTAGTGCAG | 5900 fluorescence intensity (a.u.)
21 | CATGATGATAGAGGATCTCGTTAAAATCTCCCACTACCAACGGAGTCACCTAGTGCAG | 7480 fluorescence intensity (a.u.)

Row | Sequence | binding signal
22 | GTGATTTGATCTCGCTGCTGATATTGCTCCCTCATCCCAACGGAGTCACCTAGTGCAG | 10300 fluorescence intensity (a.u.)
23 | TACCGATAATTTGTTATAGATCCCTAGACGTACATTCCTCCGGAGTCACCTAGTGCAG | 19900 fluorescence intensity (a.u.)
24 | TAATAATTCTAATAATTTATCAACATGTGTATATCAAATTCGGAGTCACCTAGTGCAG | 3880 fluorescence intensity (a.u.)
25 | TAAATAATTGTACAGAATCGTTAGGATACATTATATCTGTCGGAGTCACCTAGTGCAG | 6300 fluorescence intensity (a.u.)
26 | GTTTACACGAGGGAATTGATGATGAGATTAAGATGAGAATCGGAGTCACCTAGTGCAG | 7140 fluorescence intensity (a.u.)
27 | ATAATTTGATTATCCGAATATTCCATTTCCATCCCAATTTCGGAGTCACCTAGTGCAG | 29800 fluorescence intensity (a.u.)
28 | TTGCTATTTGTTGGTTTGATTTATTGCTACTGCAACAGATCGGAGTCACCTAGTGCAG | 3880 fluorescence intensity (a.u.)
29 | CGGTTTAGTGATAGGAATCAAATTAGAGTCAAAGTGAACTCGGAGTCACCTAGTGCAG | 11300 fluorescence intensity (a.u.)
30 | ATCGGAAATGGGCCAATCATATTTCCATGCTTTACGTGGACGGAGTCACCTAGTGCAG | 8160 fluorescence intensity (a.u.)
31 | TAATAATTAATTAGTTAGTGGAACTAATCGGCAGTTGGCCCGGAGTCACCTAGTGCAG | 31400 fluorescence intensity (a.u.)
32 | GTTGGTCTAGCTTGATTAGCTGGCAGCAAATTCAGAGTTGCGGAGTCACCTAGTGCAG | 6290 fluorescence intensity (a.u.)
33 | GTCATCAATCCGCGCCTCCTCCCGTGATCTCAATCCCAACCGGAGTCACCTAGTGCAG | 4120 fluorescence intensity (a.u.)
34 | TTAAAACTGAAATTATCGTATGTGCCTTGTCGCCGTGATTCGGAGTCACCTAGTGCAG | 7510 fluorescence intensity (a.u.)
35 | AATAATATAATAGATTATTCTGTCCTCTCAGTGGTCCAAACGGAGTCACCTAGTGCAG | 22900 fluorescence intensity (a.u.)
36 | ATTACAGATGTAATTTTAGTCTATTTATTTACAATGTAAGCGGAGTCACCTAGTGCAG | 16400 fluorescence intensity (a.u.)
37 | GCGGTTAATTATTGAACATCATGCGTAAGTCATGCAACTTCGGAGTCACCTAGTGCAG | 20600 fluorescence intensity (a.u.)
38 | CCAGTCACGTTCAATCTTTTGTCCATTGGACAAAAGCACGCGGAGTCACCTAGTGCAG | 3370 fluorescence intensity (a.u.)
39 | CACCAAATCCGGTAATTGACCAGCTCGAACAGTCCTGTGCCGGAGTCACCTAGTGCAG | 23200 fluorescence intensity (a.u.)
40 | TCTGACAAACTGAATGTGAAGATGCAAAGCTTTTACAGGTCGGAGTCACCTAGTGCAG | 7420 fluorescence intensity (a.u.)
41 | GCTAAACTGGCACCTATAATGCTTTTCCCTCCTCCGTAGACGGAGTCACCTAGTGCAG | 11000 fluorescence intensity (a.u.)
42 | GTTGATTCAAATTAGACCGTTTGGAAGTAGCCCTGTTCGACGGAGTCACCTAGTGCAG | 22500 fluorescence intensity (a.u.)

Source: paper PMC7819943, “Rice protein-binding microarrays: a tool to detect cis-acting elements near promoter regions in rice”
